# Some entries of the source have several records that differ or are many. This is not the full list of results. The source may hold further records. Values that stand side by side are repeated measurements in other runs, samples, wells, individuals or studies. Brackets with × give the number of equal values in this list.
# Test system: OVCAR-8 complex spheroid, growth inhibition
# Assay: Anticancer human tumor OVCAR-8 cell line growth inhibition [Asc];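 note: spheroids exposed to agents for 7 days before readout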;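 for viability, T/C: percent viability relative to DMSO vehicle wells taken as 100%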
# Settings: for viability, T/C: stronger effect = lower value
# Description: Multicellular complex tumor spheroid response to apoptosis pathway targeting inhibitors Alrizomadlin, Pelcitoclax, and Dasminapant in combination with a variety of drugs and investigational agents in selected tumor cell lines
# The MDM2 inhibitor alrizomadlin, the Bcl-2/Bcl-xL inhibitor pelcitoclax, and the IAPs inhibitor dasminapant were evaluated both individually and in combination with standard of care and investigational anticancer small molecules within a complex spheroid model of solid tumors. . Complex spheroids include a stromal component modeled by human endothelial cells (HUVEC) and fibroblasts modeled by human mesenchymal stem cells (MSCs). The concentration ranges selected for each drug and investigational agent were based upon clinically achievable concentrations if the clinical Cmax of the agent was known.
# Compounds. The drugs and investigational agents: alrizomadlin (APG-115; NSC831270), pelcitoclax (APG-1252; NSC835773), dasminapant (APG-1387;NSC834197), TAK-243 (NSC785004), copanlisib (NSC809693), olaparib (NSC753686), talazoparib (NSC767125), cobimetinib (NSC 768068), eltanexor (KPT-8602, NSC 794443), abemaciclib (NSC 768073), sotorasib (NSC818433), adagrasib (NSC 831453), MRTX-1133 (NSC 836407), Iadademestat (ORY1001, NSC 806812), and RMC-4630 (NSC839698), were obtained from the NCI Developmental Therapeutics Program Chemical Repository. The FDA-approved anticancer drug set is available from the Developmental Therapeutics Program at https://dtp.cancer.gov/organization/dscb/obtaining/available plates.htm. […] The stock solutions were prepared in dimethyl sulfoxide (DMSO, Sigma-Aldrich, St. Louis, MO, cat. D2650) at 800-fold the tested concentration and stored at -70 degrees C prior to their use. All drugs and investigational agents were tested over a range starting from a high concentration at or near the clinical Cmax and decreasing in half-log increments. If the clinical Cmax for an agent had not been determined, the highest concentration tested was 10 microM.
# The patient-derived cancer (PDC) cell lines include five colon adenocarcinomas: 186277-243-T-J2-PDC, 616215-338-R-J1-PDC, 439559-082-T-J2-PDC, 463943-066-T-J2-PDC, and 519858-162-T-J1-PDC; three pancreatic carcinomas: 323965-272-R-J2-PDC, 521955-158-R6-J3-PDC, and 521955-158-R2-J5-PDC; two uterine sarcomas: 327498-152-R-J2-PDC and 993429-296-R-J1-PDC; two rhabdomyosarcomas: 755483-174-R-J1-PDC and 772245-204-R-J1-PDC; two soft tissue sarcomas: 126254-015-R-J1-PDC and 494315-158-R-J1-PDC; two malignant fibrous histiocytomas: 317291-083-R-J1-PDC and 596521-263-R-J1-PDC; two breast carcinomas: 171881-019-R-J1-PDC and 885512-296-R-J2-PDC; and one ovarian carcinoma: 6556581-035-R-J-PDC were obtained from the NCI PDMR, (https://pdmr.cancer.gov). The established cell lines HSSY-2 synovial sarcoma (RRID:CVCL 8719), SYO-1 synovial sarcoma (RRID:CVCL_7146), MPNST malignant peripheral neural sheath tumor were obtained from the Sloan Kettering Institute. The following established cell lines were purchased from the American Type Culture Collection (ATCC, Manassas, VA), Sor the received from the NCI repository:, PANC-1 pancreatic carcinoma (CRL-1469, RRID:CVCL_0480), OVCAR-5 ovarian carcinoma (RRID:CVCL_1628), OVCAR-8 ovarian carcinoma (RRID:CVCL_1629), , MCF-7 breast carcinoma (CRL-12584, RRID:CVCL_0031), MDA-MB-231 breast carcinoma (CRL-12532, RRID:CVCL_0062), NCI-H1876 small cell lung carcinoma (CRL-5902, RRID:CVCL_1503), NCI-H510A small cell lung carcinoma (HTB-184, RRID:CVCL_1565), NCI-H1417 (CRL-5869, RRID:CVCL_1469), and NCI-H196 small cell lung carcinoma (CRL-5823, RRID:CVCL_1509). Dr. Peter Houghton (Greehey Children's Cancer Research Institute, University of Texas Health Science Center, San Antonio, TX) provided Rh-18 rhabdomyosarcoma (RRID:CVCL_1659). Pooled donor human umbilical vein endothelial cells (HUVEC, Lonza, cat. CC-2519) and human mesenchymal stem cells (hMSC, Lonza, cat. PT-2501) were purchased from Lonza (Walkersville, MD).
# Cell Culture. […]
structure (smiles),measurement,setting,value
Cc1c(S(C)(=O)=O)c(-c2cc(F)cc(N3CCN(c4ccc(NS(=O)(=O)c5ccc(NC(CCN6CCC(C(=O)OCCCP(=O)(O)O)CC6)CSc6ccccc6)c(S(=O)(=O)C(F)(F)F)c5)cc4)CC3)c2)c(-c2ccc(Cl)cc2)n1C(C)C (centres undefined),"viability, T/C",compound alone 0.316 µM,"97.4, 87.8, 99.5, 93.4, 119, 92.7, 86.5%"
same,"viability, T/C",compound alone 10 µM,"99.4, 120, 92.8, 104, 94, 90.3, 89.5%"
CNC(C)C(=O)NC1CN(S(=O)(=O)c2cccc(S(=O)(=O)N3CCC4CCC(C(=O)NC(c5ccccc5)c5ccccc5)N4C(=O)C(NC(=O)C(C)NC)C3)c2)CCC2CCC(C(=O)NC(c3ccccc3)c3ccccc3)N2C1=O (centres undefined),IC50,"OVCAR-8 complex spheroid, combination growth inhibition, compound alone, run of 11/15/2022",< 3.16 nM and > 1 µM
same,"viability, T/C",compound alone 0.00316 µM,"89.2, 84.5, 0.68, 98.5, 110, 107, 95, 102, 94.7%"
same,"viability, T/C",compound alone 0.01 µM,"82.1, 85.4, 103 (2×), 124, 98.2, 97.2, 107, 101%"
same,"viability, T/C",compound alone 0.0316 µM,"79.8, 83.7, 99.4, 98.5, 129, 110, 108 (2×), 98.6%"
same,"viability, T/C",compound alone 0.1 µM,"84, 96 (2×), 95.5 (2×), 113, 99.5, 94.2, 107%"
same,"viability, T/C",compound alone 0.316 µM,"78.8, 76.5 (2×), 81.9, 84.5, 114, 82.4, 88.4, 85.9%"
same,"viability, T/C",compound alone 1 µM,"66.8, 68.7, 88.7, 75.4, 102, 83.2, 83, 77.4, 84.7%"
NC(=O)C(=Cn1cnc(-c2cc(C(F)(F)F)cc(C(F)(F)F)c2)n1)c1cncnc1,"viability, T/C",compound alone 0.0949 µM,"98.3%, 92.3%, 9.25%"
same,"viability, T/C",compound alone 0.3 µM,"69.8%, 70.3%, 5.04%"
CCN1C(C(=O)NC23CCC(C(=O)O)(CC2)CC3)C(c2cccc(Cl)c2F)C2(C(=O)Nc3cc(Cl)ccc32)C12CCCCC2 (centres undefined),"viability, T/C",compound alone 0.00949 µM,"87.9, 94.9, 88, 89, 82, 107, 80.6, 95.2, 105%"
same,"viability, T/C",compound alone 0.0949 µM,"92.2, 108, 96.2, 80.5, 101, 103, 88.8, 95.8, 94.9%"
same,"viability, T/C",compound alone 0.3 µM,"92.7, 96.9, 114, 87.7, 97, 94.4, 96.2, 108, 111%"

# From PubChem BioAssay AID1963437 (Molecular Pharmacology Branch, DTP, NCI, 2024)
